# Reference: paper PMC4242493
# Some of the results follow. The list includes weakly bound sequences.
# Biological target: MaxL homodimer (UniProt P61244)
# Assay: universal protein-binding microarray (PBM)
# Details: PBS-based mixture, 10 nM His-tagged protein dimer, 2% milk, 200 ng/uL BSA, 50 ng/uL salmon testes DNA, 0.02% TX-100; detection with Alexa 488 anti-His …; high values mean tight binding; most listed sequences are background and not binding sites; double strand, one strand shown
# Chain of UniProt P61244 (P61244 whole entry): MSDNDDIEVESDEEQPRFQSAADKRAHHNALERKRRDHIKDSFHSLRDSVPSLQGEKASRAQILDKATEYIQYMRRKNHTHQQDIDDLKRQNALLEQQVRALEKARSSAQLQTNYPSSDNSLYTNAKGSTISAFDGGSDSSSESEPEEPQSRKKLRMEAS
row,Sequence,binding signal (normalized occupancy)
1,ATGAAGTA,0.0773
2,CTATCGAG,0.0743
3,AGTGAACC,0.0749
4,AATTTCAA,0.0737
5,AATCAACC,0.0816
6,CGCTCACA,0.076
7,AAGAAACA,0.0716
8,AAATCCCT,0.074
9,GGAAAGCC,0.0677
10,TTCGGCAA,0.0765
11,GACTTGGA,0.0749
12,CGTGGGAA,0.089
13,TAAATATA,0.0874
14,AACTGCGC,0.068
15,ATTCAGTC,0.076
16,ATCGAAAG,0.0707
17,AGTTGCTC,0.0675
18,GTGGGACA,0.0848
19,GACAAGCC,0.0728
20,GACTGGTA,0.0764
21,AGTTCCGC,0.0665
22,GAGTCCGC,0.0716

row,Sequence,binding signal (normalized occupancy)
1,ACCCAATA,0.0747
2,ATGACAAG,0.081
3,CCGAAGCG,0.0676
4,AAGGGAAC,0.0715
5,CTACGTAC,0.0835
6,GGTTTTAC,0.0786
7,AACGAATC,0.0776
8,AGCCCCAC,0.0786
9,AAACGTGC,0.101
10,AAGCCTCG,0.0772
11,GGTCCTAA,0.0732
12,CCTGCCCG,0.0714
13,AAAGGCGA,0.0712
14,TAGGAGCA,0.0779
15,CACGCCGA,0.0911
16,TAAGGAGA,0.0751
17,ACGTCCGA,0.0738
18,TACTCCTA,0.0748
19,ATGTAGCA,0.079
20,CGCAACCG,0.068
21,AAACCGGC,0.0689
22,AGCATGGC,0.102

row,Sequence,binding signal (normalized occupancy)
1,ACCTGCGT,0.0757
2,CTAAAGCA,0.0753
3,CCCCCAGC,0.0752
4,TAACAGTA,0.0801
5,CAGCGTCA,0.0719
6,GGGATCAA,0.0808
7,ATCCTGAC,0.0753
8,GTCACTAA,0.0757
9,AAACGCAG,0.0728
10,GCTTTCTA,0.0752
11,AAAGATGC,0.0755
12,AAGGCTAT,0.0752
13,ACGCGGCC,0.0827
14,AAGATTAT,0.0762
15,CGATTTCC,0.0663
16,CTGCAGCA,0.0755
17,AACTACAG,0.0771
18,GCAGGAGA,0.0739
19,GAAGATAA,0.0733
20,GACCGACA,0.075
21,AATCCTTC,0.0778
22,ATCTATGA,0.0846

row,Sequence,binding signal (normalized occupancy)
1,ATAATAGG,0.0786
2,CACTAATA,0.0773
3,ATGCAAAA,0.0753
4,GCTCCCCA,0.0833
5,ACTTCTGG,0.0758
6,CGTCAGGC,0.0716
7,CCTGGTTC,0.0726
8,ACCACGTC,0.0945
9,GCGCCCAA,0.0712
10,GGGGAAAC,0.073
11,CAACGCTC,0.0772
12,AGGGTCAG,0.0706
13,CCGACAAA,0.0718
14,CTACGACA,0.0772
15,CAGTAGCC,0.0674
16,GTATGCGA,0.0727
17,AAACGGTT,0.073
18,GAAGCCAC,0.0721
19,CTGGGTTC,0.0693
20,GACAGCAC,0.0804
